# Results published in article PMC4336329 (PLoS ONE, 2015).
# In all, about 310,000 compounds went through this assay and about 14,000 (4.5%) showed an effect of 50% or more. The effect is printed as a negative number. Some of the results follow.
# Molecular target: human ether-à-go-go-related gene (hERG) potassium channel (human, UniProt Q12809)
# Assay: primary screen, population patch clamp on CHO cells stably expressing hERG
# 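Further: peak tail current of the secondary pulse compared with the same well before compound.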
# human ether-à-go-go-related gene (hERG) potassium channel, sequence (Q12809 whole entry, looked up): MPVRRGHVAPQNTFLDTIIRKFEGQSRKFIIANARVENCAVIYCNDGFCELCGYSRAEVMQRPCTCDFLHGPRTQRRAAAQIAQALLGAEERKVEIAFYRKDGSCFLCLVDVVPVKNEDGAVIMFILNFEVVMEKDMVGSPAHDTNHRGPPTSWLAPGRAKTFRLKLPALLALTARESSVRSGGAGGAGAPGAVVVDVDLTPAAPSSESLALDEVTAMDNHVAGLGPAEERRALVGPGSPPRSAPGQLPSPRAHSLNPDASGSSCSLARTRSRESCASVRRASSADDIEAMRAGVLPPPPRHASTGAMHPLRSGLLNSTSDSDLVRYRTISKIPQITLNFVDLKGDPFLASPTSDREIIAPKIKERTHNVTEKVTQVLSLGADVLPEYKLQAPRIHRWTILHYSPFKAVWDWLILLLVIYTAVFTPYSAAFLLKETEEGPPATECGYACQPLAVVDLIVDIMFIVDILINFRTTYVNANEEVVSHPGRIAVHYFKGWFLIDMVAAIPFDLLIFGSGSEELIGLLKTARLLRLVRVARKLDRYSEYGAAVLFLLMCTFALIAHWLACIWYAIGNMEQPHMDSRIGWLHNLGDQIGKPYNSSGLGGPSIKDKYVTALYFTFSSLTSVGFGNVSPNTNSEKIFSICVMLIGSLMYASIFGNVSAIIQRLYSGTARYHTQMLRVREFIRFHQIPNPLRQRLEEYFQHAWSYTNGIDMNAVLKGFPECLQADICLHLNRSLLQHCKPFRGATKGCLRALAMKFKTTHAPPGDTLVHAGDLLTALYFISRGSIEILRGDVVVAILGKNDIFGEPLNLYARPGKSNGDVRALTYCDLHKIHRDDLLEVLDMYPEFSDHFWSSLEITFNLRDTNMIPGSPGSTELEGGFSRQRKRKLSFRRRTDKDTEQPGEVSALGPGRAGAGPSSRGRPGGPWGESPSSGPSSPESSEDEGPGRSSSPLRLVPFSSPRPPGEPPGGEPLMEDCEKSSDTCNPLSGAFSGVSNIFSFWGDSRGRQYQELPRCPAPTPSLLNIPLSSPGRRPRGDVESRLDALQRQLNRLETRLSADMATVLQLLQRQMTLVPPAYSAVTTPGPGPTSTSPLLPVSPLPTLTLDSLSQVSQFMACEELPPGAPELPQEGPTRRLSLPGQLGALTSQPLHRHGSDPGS
row,Compound,"hERG current change (%, negative = inhibition) at 10uM [%]"
1,Cc1cccc(C)c1N(C(=O)c1ccco1)C(C(=O)NC1CCCC1)c1ccncc1 (centres unmarked),-1.34
2,COc1cc2c(cc1OC)C(c1ccccc1)=NCC2,-23.6
3,CC1CCCCN1S(=O)(=O)c1cccc2cccnc12 (centres unmarked),-6.1
4,O=C(Nc1ccc(CN2CCS(=O)(=O)CC2)cc1)c1ccc(F)cc1,4.26
5,CCOc1c(Cl)cc(Cl)cc1CNCCNCCO.Cl,-1.91
6,COC(=O)c1ccccc1N(C)S(C)(=O)=O,6.47
7,Cc1cccc(CSCCNC(=O)CN(c2cc(C)cc(C)c2)S(C)(=O)=O)c1,-23.9
8,CCOc1ccc(NC(=O)CN2CCN(S(=O)(=O)c3ccc(Cl)cc3)CC2)cc1,-9.26
9,c1ccc(Cn2c(CNc3nc4ccccc4n3CCN3CCCCC3)nc3ccccc32)cc1,-68.5
10,CN(c1ccc(OCC(=O)OCc2nnc(-c3ccccc3)o2)cc1)S(=O)(=O)c1ccc(Cl)cc1,-7.85
11,O=C(Nc1ccc(S(=O)(=O)Nc2ncccn2)cc1)c1cccc(S(=O)(=O)N2CCOCC2)c1,11.4
12,O=C(c1ccc(Cl)c([N+](=O)[O-])c1)N(Cc1ccc(F)cc1)C1CCS(=O)(=O)C1 (centres unmarked),-27
13,CCN1CCN(c2ccc(S(=O)(=O)N3CCOCC3)cc2NC(=O)c2ccc(C(F)(F)F)cc2)CC1,-44.2
14,O=C(NC1CCCc2ccccc21)C1CCN(S(=O)(=O)c2cccc(C(F)(F)F)c2)CC1 (centres unmarked),-10.8
15,CCOC(=O)CN1CC23C=CC(O2)C(C(=O)Nc2ccc(C(C)=O)cc2)C3C1=O (centres unmarked),4.98
16,CCCOC(=O)c1ccc(NC(=O)c2ccccc2OC)cc1,4.44
17,CCc1c(C)nc2c(OC)cccc2c1Cl,-2.25
18,CCOC(=O)C(NC(=O)OC(C)C)(Nc1nccs1)C(F)(F)F (centres unmarked),-5.14
19,CCOC(=O)c1c(NC(=O)CSc2nc3ccccc3c(=O)n2-c2ccccc2)sc(C(C)=O)c1C,15.8
20,O=[N+]([O-])c1c(NCCO)cc(N2CCCCCC2)c2nonc12,11.7
21,O=C(CN1CCc2ccccc2C1)Nc1ccccc1Cl,-21.2
22,CC1(OCON)CCCc2ccccc21 (centres unmarked),11.5

row,Compound,"hERG current change (%, negative = inhibition) at 10uM [%]"
1,O=C(c1cc(COc2c(F)cccc2F)on1)N1CCC(c2ccccc2Cl)C1 (centres unmarked),-1.7
2,COc1cccc(NC2=C(C#N)C(=O)NC(c3cccc(OC)c3O)S2)c1 (centres unmarked),16
3,O=C1CCCCC1C(=O)c1cn(-c2ccc(Cl)c(Cl)c2)nn1 (centres unmarked),5.99
4,O=C(N/C(=C\c1ccc(Cl)cc1)C(=O)N1CCOCC1)c1ccc([N+](=O)[O-])cc1,-83
5,O=C(c1ccc2ccccc2c1)N1CCCCC1,10.5
6,O=C(CSc1nnnn1C1CC2CCC1C2)Nc1ccnc2ccccc12 (centres unmarked),-4.96
7,COc1ccc(C2=NOC(C)(c3nnc(Cc4ccccc4)o3)C2)cc1 (centres unmarked),2
8,Cc1ccc(-c2c(C)c(-c3ccc(F)cc3)nc(N)c2C#N)o1,-13
9,Fc1ccc(NC(=S)NN=C2CCCCCC2)cc1,5.61
10,CCCCOC(=O)Nc1nc2ccccc2s1,-10.1
11,CCOC(=O)CSC1=C(C#N)C(c2ccc(Cl)cc2)C(C(=O)OC)C(=O)N1 (centres unmarked),-7.59
12,Cc1ccc(S(=O)(=O)N2CCN(c3ccc([N+](=O)[O-])c(Sc4nncn4C)c3)CC2)cc1,-62.3
13,Oc1nc(-c2ccc(Cl)cc2)n2ccncc12,72
14,COc1cccc(C2=CC(=O)CCC2)c1OC,12.3
15,COc1cccc(NC(=S)N2CCN(S(=O)(=O)c3ccc(F)cc3)CC2)c1,-1.7
16,O=C(Cn1nnc(-c2cccs2)n1)N1c2ccccc2Sc2ccc(C(F)(F)F)cc21,11.6
17,COc1ccccc1-c1nnc(SC(C(=O)c2c[nH]c3ccccc23)c2ccccc2)n1C (centres unmarked),20.8
18,CC(C)(C)NC(=O)c1ccc(NC(=O)C2COc3ccccc3O2)cc1 (centres unmarked),-2.96
19,COc1cccc(CN2CC(C(=O)NCCOc3ccccc3F)CCC2=O)c1 (centres unmarked),4.61
20,Cn1cc(C(=O)Nc2ccc(F)c(F)c2)cn1,17.7
21,O=C(CN1CCN(c2ccccn2)CC1)NCCc1ccccc1,-9.55
22,O=C(O)C1C2CCC(C2)C1C(=O)Nc1cc(F)ccc1F (centres unmarked),2.97
